Assay results: the supplement of paper PMC8728848
This is one part of the list.

Columns and labels:
Experiment in all cases: glycan array binding signal (z-score within array); higher = stronger binding
Details in all cases: glycan notation: IUPAC condensed, linker removed
[1] = biological target: GalNAc(b1-4)GlcNAc
Outline: (§1)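 The binding signal is a Z-score computed within each array and averaged over linkers. Arrays of the same protein sequence at different concentrations or buffers were also averaged together. Data originate from 3228 arrays in the Consortium for Functional Glycomics database, kept only where the protein sequence was available.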

[2] = biological target: GalNAc(b1-4)GlcNAc(b1-2)Man
Outline: as §1

[3] = biological target: GalNAc(b1-4)GlcNAc(b1-2)Man(a1-3)[GalNAc(b1-4)GlcNAc(b1-2)Man(a1-6)]Man(b1-4)GlcNAc(b1-4)GlcNAc
Outline: as §1

[4] = biological target: GalNAc(b1-4)GlcNAc(b1-3)GalNAc(b1-4)GlcNAc
Outline: as §1

[5] = biological target: GalNAc(b1-4)GlcNAc6S
Outline: as §1

[6] = biological target: GalNAc(b1-6)GalNAc
Outline: as §1

[7] = biological target: GalNAc3S(b1-4)GlcNAc
Outline: as §1

[8] = biological target: GalNAc3S(b1-4)GlcNAc3S
Outline: as §1

[9] = biological target: GalNAc3S(b1-4)[Fuc(a1-3)]GlcNAc
Outline: as §1

[10] = biological target: GalNAc4S6S(b1-4)GlcNAc
Outline: as §1

[11] = biological target: GalNAc6S(b1-4)GlcNAc
Outline: as §1

[12] = biological target: Glc(a1-4)Glc
Outline: as §1

[13] = biological target: Glc(a1-4)Glc(a1-4)Glc(a1-4)Glc
Outline: as §1

[14] = biological target: Glc(a1-6)Glc(a1-6)Glc
Outline: as §1

[15] = biological target: Glc(a1-6)Glc(a1-6)Glc(a1-6)Glc
Outline: as §1

[16] = biological target: Glc(b1-4)Glc
Outline: as §1

[17] = biological target: Glc(b1-6)Glc
Outline: as §1

[18] = biological target: GlcA(b1-3)Gal
Outline: as §1

[19] = biological target: GlcA(b1-3)GlcNAc
Outline: as §1

[20] = biological target: GlcA(b1-6)Gal
Outline: as §1

[21] = biological target: GlcA3S(b1-3)Gal(b1-4)GlcNAc(b1-2)Man
Outline: as §1

[22] = biological target: GlcA3S(b1-3)Gal(b1-4)GlcNAc(b1-3)Gal(b1-4)Glc
Outline: as §1

[23] = biological target: GlcNAc(a1-3)Gal(b1-4)GlcNAc
Outline: as §1

[24] = biological target: GlcNAc(a1-4)Gal(b1-3)GlcNAc
Outline: as §1

[25] = biological target: GlcNAc(a1-4)Gal(b1-4)GalNAc
Outline: as §1

[26] = biological target: GlcNAc(a1-4)Gal(b1-4)GlcNAc
Outline: as §1

[27] = biological target: GlcNAc(a1-4)Gal(b1-4)GlcNAc(b1-3)Gal(b1-4)Glc
Outline: as §1

[28] = biological target: GlcNAc(a1-4)Gal(b1-4)GlcNAc(b1-3)Gal(b1-4)GlcNAc
Outline: as §1

[29] = biological target: GlcNAc(a1-4)Gal(b1-4)GlcNAc(b1-3)Gal(b1-4)GlcNAc(b1-3)Gal(b1-4)GlcNAc
Outline: as §1

[30] = biological target: GlcNAc(a1-4)Gal(b1-4)GlcNAc(b1-3)Gal(b1-4)[Fuc(a1-3)]GlcNAc(b1-3)Gal(b1-4)[Fuc(a1-3)]GlcNAc
Outline: as §1

[31] = biological target: GlcNAc(a1-6)Gal(b1-4)GlcNAc
Outline: as §1

[32] = biological target: GlcNAc(b1-2)Gal(b1-3)GalNAc
Outline: as §1

[33] = biological target: GlcNAc(b1-2)Man(a1-3)[GlcNAc(b1-2)Man(a1-6)]Man(b1-4)GlcNAc(b1-4)GlcNAc
Outline: as §1

[34] = biological target: GlcNAc(b1-2)Man(a1-3)[GlcNAc(b1-2)Man(a1-6)]Man(b1-4)GlcNAc(b1-4)[Fuc(a1-6)]GlcNAc
Outline: as §1

[35] = biological target: GlcNAc(b1-2)Man(a1-3)[GlcNAc(b1-4)][GlcNAc(b1-2)Man(a1-6)]Man(b1-4)GlcNAc(b1-4)GlcNAc
Outline: as §1

[36] = biological target: GlcNAc(b1-2)Man(a1-3)[GlcNAc(b1-4)][GlcNAc(b1-2)Man(a1-6)]Man(b1-4)GlcNAc(b1-4)[Fuc(a1-6)]GlcNAc
Outline: as §1

[37] = biological target: GlcNAc(b1-2)[GlcNAc(b1-4)]Man(a1-3)[GlcNAc(b1-2)Man(a1-6)]Man(b1-4)GlcNAc(b1-4)GlcNAc
Outline: as §1

B1: AT1G73650(15) (Arabidopsis thaliana), F4HRY1 (protein)
chain: MGTVLDSHFLALTAIVTVIYQFIFFVITALFKFDQVTDFAGSTNFVILAVLTLVLKASWHFRQIVLTLLVVVWGLRLGIFLLMETRILQWGEDRRFDEQRGNIVRLIIFWTLQAVWVWTVSLPLTLVNASDGGGSLKPADVIGWTMETWVFGFLIEAAADQQKLSFKNSPENRGKWCDVGVWKYSRHPNYFGEMETLLWWGIFVAASPVLEGAEYLVIFGPLFLTLLLLFVSGIPLLEASADKKHGNSGAYRSYKKTTSPLILFPRGVYGNLPGWFKTVFLFEFPFYSRNLPQEGRLQNSKEKEVKDD
[1]
  glycan array binding signal (z-score): 4.01
[2]
  glycan array binding signal (z-score): -0.666
[3]
  glycan array binding signal (z-score): 0.151
[4]
  glycan array binding signal (z-score): 0.643
[5]
  glycan array binding signal (z-score): -0.402
[6]
  glycan array binding signal (z-score): -0.297
[7]
  glycan array binding signal (z-score): -0.255
[8]
  glycan array binding signal (z-score): -0.562
[9]
  glycan array binding signal (z-score): -0.634
[10]
  glycan array binding signal (z-score): -0.561
[11]
  glycan array binding signal (z-score): 0.513
[12]
  glycan array binding signal (z-score): -0.58
[13]
  glycan array binding signal (z-score): -0.08
[14]
  glycan array binding signal (z-score): -0.619
[15]
  glycan array binding signal (z-score): -0.258
[16]
  glycan array binding signal (z-score): 0.1
[17]
  glycan array binding signal (z-score): -0.474
[18]
  glycan array binding signal (z-score): -0.423
[19]
  glycan array binding signal (z-score): -0.467
[20]
  glycan array binding signal (z-score): -0.633
[21]
  glycan array binding signal (z-score): -0.382
[22]
  glycan array binding signal (z-score): -0.496
[23]
  glycan array binding signal (z-score): -0.665
[24]
  glycan array binding signal (z-score): -0.337
[25]
  glycan array binding signal (z-score): -0.413
[26]
  glycan array binding signal (z-score): -0.467
[27]
  glycan array binding signal (z-score): -0.349
[28]
  glycan array binding signal (z-score): -0.326
[29]
  glycan array binding signal (z-score): -0.488
[30]
  glycan array binding signal (z-score): -0.047
[31]
  glycan array binding signal (z-score): -0.621
[32]
  glycan array binding signal (z-score): -0.316
[33]
  glycan array binding signal (z-score): -0.569
[34]
  glycan array binding signal (z-score): -0.506
[35]
  glycan array binding signal (z-score): 2.2
[36]
  glycan array binding signal (z-score): -0.589
[37]
  glycan array binding signal (z-score): -0.407
